# Data as given in the supplement of paper PMC10338343.
# ± gives the standard deviation. The list shows a part of the results, in another mix than the full data.
# Test system: MIWI (PIWIL1) piRISC loaded with L1MC piRNA (30 nt)
# Assay: pre-steady-state target cleavage rate (min^-1); MIWI and MILI are mouse PIWI proteins and EfPiwi is from a freshwater sponge; tags in brackets are library labels; higher = faster piRNA-guided slicing of the target
# Conditions: guide: L1MC piRNA 5'p-UAACUAAAUACUAUGCAAGCUGUAGGUCCU; auxiliary factor: 500 nM mouse GTSF1
# Summary of the method: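 In Cleave-'n-Seq, a transcribed, DNA-blocked target RNA library (0.1 nM) was combined with 1 nM active affinity-purified piRISC bearing one synthetic guide, with or without 500 nM GTSF1 partner protein. Reactions ran in HEPES–potassium acetate buffer at 33 °C for 0–8 or 0–960 min. Uncleaved targets were sequenced and normalised to depth and to weakly complementary targets, three trials were pooled, and k3 was capped at 0.0001 min^-1. The pre-steady-state cleavage rate was obtained by fitting a burst-and-steady-state model.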
row,Sequence,pre-steady-state target cleavage rate
1,AGGACCUACAGGUUCCAUAGUAUUUAGUUA,0.659 ± 0.17
2,UCCUCCUACAGCUUCCAUAGUAUUUAGAUA,0.0587 ± 0.021
3,UCCUCCUACAGCUUGCAUAGAUUUUAGUAA,0.117 ± 0.028
4,UCGACCUACUCCUUGCAUAGUAUUUUCAAA,0.253 ± 0.033
5,UCCACCUACAGCUUGCAUAGUAUAAUGAAA,0.249 ± 0.04
6,UCCUGGAUGUCCUUGCAUAGUAUUAUGUUA,0.00464 ± 0.004
7,UGGACCUACAGCAAGCAUAGUAUUUAGAAA,0.271 ± 0.031
8,UCGACCUACAGCUUGCAUAGUAAAUUCAAA,0.709 ± 0.18
9,UCCUCCUACAGCUUGCAAUGUAUUUAGAAA,0.116 ± 0.023
10,UCCACCUACAGCUUCCAUAGUAUUUAGUAA,0.151 ± 0.048
11,UGGACCUACAGCAACCAUAGUAUUUAGUAA,0.0818 ± 0.015
12,UCCUGCUUCAGCUUGCAUAGUAUUUUCAAA,0.197 ± 0.035
13,UCCUGGUACAGCAAGCAUAGUAUUUAGAAA,0.123 ± 0.032
14,UCCUGGAACAGCAAGCAUAGUAUUUUCAAA,0.0377 ± 0.012
15,UGGACCUACAGCUUCCAUAGUAUUUUGUUA,0.00948 ± 0.0033
